In patent US10364280B2, “Polypeptide” (AFFIBODY AB, priority 2015, dated 2019):

Columns and labels:
[1] = system: PD-L1 expressing THP-1 cells; assay: Cell binding analysis by FACS; format: cell-based; details: THP-1 cells stimulated with IFNγ overnight; His-tagged Z variants 10 μg/ml, antibody 1 μg/ml; normalized against a positive control Z variant
Description: The potential of two selected Z variants, Z13166 (SEQ ID NO:1) and Z13398 (SEQ ID NO:4), to bind PD-L1 expressing cells was investigated using Fluorescence Activated Cell Sorting (FACS). THP-1 cells, cultivated in RPMI (Lonza, cat. no. BE12-702F) containing 10% FBS, were stimulated with 10 ng/ml IFNg (R&D Systems, cat. no. 285-IF-100) overnight which results in up-regulation of PD-L1. 150,000 stimulated and unstimulated cells were pipetted per well of a v-bottomed 96 well plate (Nunc, cat. no. 277143) and the cells in the plate were subsequently pelleted at 400 g for 3 min at RT. The supematants were removed and the cells were resuspended in 100 μl PBS plus 2.5% FBS (staining buffer) containing 10 μg/ml of the different His-tagged Z variants. […] Cells incubated with buffer alone were used as negative controls. The cells were incubated for 1 h at 8° C. in the dark, washed twice with 100 μl staining buffer and resuspended in 100 μl of staining buffer containing a goat anti-Z antibody (produced in house) at a concentration of. 5 μg/ml. Cells stained with the positive control were treated with buffer only. […] Data from 10,000 cells were obtained using a FACS Calibur (Beckman Coulter) and the data was analyzed using Flowing software 2.5.0 (Turku University). Mean fluorescence intensity (MFI) was used as a read out of binding capacity.

[2] = target: T1, hPD-L1 (Homo sapiens, UniProt Q9NZQ7); assay: Biacore kinetic analysis on immobilized hPD-L1; format: binding; details: His6-tagged Z variants; approximate, based on 5 and 50 nM injected; 1:1 interaction model
T1 construct: purchased R&D Systems 156-B7-100
Description: (§1) Kinetic constants (ka and kd) and affinities (KD) for hPD-L1 were determined for the His6-tagged Z variants Z13166 (SEQ ID NO:1), Z13178 (SEQ ID NO:2), Z13359 (SEQ ID NO:3) and Z13398 (SEQ ID NO:4) using a Biacore 2000 instrument (GE Healthcare). All four Z variants were also tested for binding against the sequence-related proteins hPD-L2, hB7-H3, hB7-H4. Z13166 and Z13398 were further analyzed against mPD-L1 (mouse PD-L1 Fc Chimera, R&D Systems, cat. no. 1019-B7) and Z13178 and Z13359 were analyzed against rhesus monkey PD-L1 (RhPD-L1; rhesus PD-L1/Fc Chimera, Sino Biological Inc., cat. no. 90251-C02H)
(§2) hPD-L1, hPD-L2, hB7-H3, hB7-H4, mPD-L1 and RhPD-L1 were immobilized in separate flow cells on the carboxylated dextran layer of different CM5 chip surfaces (GE Healthcare, cat. no. BR100012). The immobilization was performed using amine coupling chemistry according to the manufacturers protocol and using HBS-EP (0.01 M HEPES pH 7.4, 0.15 M NaCl, 3 mM EDTA, 0.005% v/v Surfactant P20, GE Healthcare, cat. no. BR100188) as running buffer. In a first set of experiments, in which Z13166 and Z13398 were analyzed, the ligand immobilization levels on the surfaces were 468-894 RU for hPD-L1, 482 RU for mPD-L1, 537-742 RU for hPD-L2, 383 RU for hB7-H3, and 538-659 RU for hB7-H4. One flow cell surface on each chip was activated and deactivated for use as blank during analyte injections. In the kinetic experiment, HBS-EP was used as running buffer and the flow rate was 50 μl/min. The analytes, i.e. the Z variants, were each diluted in HBS-EP buffer within a concentration range of 1000 to 0.01 nM and injected for 5 min, followed by dissociation in running buffer for 15-25 min. After dissociation, the surfaces were regenerated with one or two injections of 0.1% SDS. Kinetic constants were calculated from the sensorgrams using the Langmuir 1:1 model of BiaEvaluation software 4.1 (GE Healthcare). In a second set of experiments, in which Z13178 and Z13359 were analyzed, the ligand immobilization levels on the surfaces were 1030 RU for hPD-L1, 1060 RU for RhPD-L1, 1070 RU for hPD-L2, 1090 RU for hB7-H3, and 770 RU for hB7-H4. Analyses were performed essentially as described above for the first set of experiments, but using a flow rate of 30 μl/min and the Z variants were injected at concentrations of 5 and 50 nM over chips immobilized with hPD-L1 and RhPD-L1, and at a concentration of 500 nM over immobilized hPD-L2, hB7-H3 and hB7-H4,

[3] = target: T2, mPD-L1 (Mus musculus, UniProt Q9EP73); assay: Biacore specificity analysis on immobilized mPD-L1; format: binding; details: His6-tagged Z variants
T2 construct: purchased R&D Systems 1019-B7
Description: as §1
hPD-L1, hPD-L2, hB7-H3, hB7-H4, mPD-L1 and RhPD-L1 were immobilized in separate flow cells on the carboxylated dextran layer of different CM5 chip surfaces (GE Healthcare, cat. no. BR100012). […] In a first set of experiments, in which Z13166 and Z13398 were analyzed, the ligand immobilization levels on the surfaces were 468-894 RU for hPD-L1, 482 RU for mPD-L1, 537-742 RU for hPD-L2, 383 RU for hB7-H3, and 538-659 RU for hB7-H4. […] Kinetic constants were calculated from the sensorgrams using the Langmuir 1:1 model of BiaEvaluation software 4.1 (GE Healthcare). In a second set of experiments, in which Z13178 and Z13359 were analyzed, the ligand immobilization levels on the surfaces were 1030 RU for hPD-L1, 1060 RU for RhPD-L1, 1070 RU for hPD-L2, 1090 RU for hB7-H3, and 770 RU for hB7-H4. […]

[4] = target: T3, RhPD-L1 (Macaca mulatta, UniProt H9Z833); assay: Biacore kinetic analysis on immobilized RhPD-L1; format: binding, rhesus monkey; details: His6-tagged Z variants
T3 construct: purchased Sino Biological Inc. 90251-C02H
Description: as §1, §2

[5] = Circular dichroism (CD) spectroscopy with variable temperature measurement; format: physicochemical; details: CD at 221 nm, VTM; Z15171-Cys in HEPES/EDTA pH 7.2, 20 to 90° C.; His-tagged Z13178, Z13398 in PBS, to 80° C.
Description: The Z variant Z15171-Cys (SEQ ID NO:5), was diluted to 0.5 mg/ml in 20 mM HEPES, 1 mM EDTA, pH 7.2. A CD spectrum at 250-195 nm was obtained at 20° C. In addition, a variable temperature measurement (VTM) was performed to determine the melting temperature (Tm). In the VTM, the absorbance was measured at 221 nm while the temperature was raised from 20 to 90° C., with a temperature slope of 5° C./min. A new CD spectrum was obtained at 20° C. after the heating procedure in order to study the refolding ability of the Z variants. The CD measurements were performed on a Jasco J-810 spectropolarimeter (Jasco Scandinavia AB) using a cell with an optical path length of 1 mm. The His-tagged Z variants Z13178 (SEQ ID NO:2) and Z13398 (SEQ ID NO:4) were analyzed by CD spectroscopy as described above, but with the exceptions that PBS was used as analysis buffer and the temperature was raised to 80° C. in the VTM.

[6] = approximate, based on one concentration, 5 nM

T3 sequence (H9Z833 19-239 limits assumed): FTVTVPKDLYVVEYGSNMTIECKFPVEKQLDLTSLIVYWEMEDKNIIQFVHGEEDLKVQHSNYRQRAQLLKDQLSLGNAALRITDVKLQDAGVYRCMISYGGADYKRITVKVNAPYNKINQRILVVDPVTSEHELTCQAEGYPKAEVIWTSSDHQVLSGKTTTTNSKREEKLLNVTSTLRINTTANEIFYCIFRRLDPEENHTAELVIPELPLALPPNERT
T1 sequence (Q9NZQ7 19-239 limits assumed): as the sequence (H9Z833 19-239 limits assumed) above, with T33A, S34A, N62S, Q68R, R82Q, L173F, A185T, I192T, L215H counted along it
T2 sequence (Q9EP73 19-290): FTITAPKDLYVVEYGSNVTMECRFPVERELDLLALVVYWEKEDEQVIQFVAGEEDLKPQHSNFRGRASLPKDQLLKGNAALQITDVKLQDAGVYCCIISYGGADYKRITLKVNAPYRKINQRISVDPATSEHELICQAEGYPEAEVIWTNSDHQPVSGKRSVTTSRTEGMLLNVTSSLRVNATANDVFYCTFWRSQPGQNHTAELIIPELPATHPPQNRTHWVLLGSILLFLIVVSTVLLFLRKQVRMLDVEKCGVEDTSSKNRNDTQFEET

Kd [2] | ka (1/Ms) hPD-L1 [2] | kd (1/s) hPD-L1 [2] | binding to mouse PD-L1 in Biacore [3] | binding to RhPD-L1 in Biacore [4] | Kd [4, 6] | ka (1/Ms) RhPD-L1 [4, 6] | kd (1/s) RhPD-L1 [4, 6] | Substance | MFI (normalized) [1] | Tm (° C.) [5]
0.4 nM | 7.4e+06 M⁻¹ s⁻¹ | 0.0026 s⁻¹ | no binding was detected | – | – | – | – | Z13166: PD-L1 binding Z variant, 58 amino acid residues, SEQ ID NO:1; tested as ABD fusion or His6-tagged (VDAKYAKERTVAVWEIVQLPNLTAWQKGAFINKLHDDPSQSSELLSEAKKLNDSQAPK; Engineered PD-L1 binding polypeptide) | 0.76 | –
15 nM | 1.9e+06 M⁻¹ s⁻¹ | 0.028 s⁻¹ | – | showed binding | 20 nM | 490000 M⁻¹ s⁻¹ | 0.0097 s⁻¹ | Z13359: PD-L1 binding Z variant, 58 amino acid residues, SEQ ID NO:3; tested as ABD fusion or His6-tagged (VDAKYAKERTIAVWEIMDLPNLTSWQRGAFIDKLHDDPSQSSELLSEAKKLNDSQAPK; Engineered PD-L1 binding polypeptide) | – | –
0.73 nM | 5.1e+06 M⁻¹ s⁻¹ | 0.0037 s⁻¹ | no binding was detected | – | – | – | – | Z13398: PD-L1 binding Z variant, 58 amino acid residues, SEQ ID NO:4; tested as ABD fusion or His6-tagged (VDAKYAKERTMATWEIVQLPNLTARQKGAFIWKLHDDPSQSSELLSEAKKLNDSQAPK; Engineered PD-L1 binding polypeptide) | 0.94 | 53 °C
